{"source": "paper PMC4336329", "about": "(PLoS ONE, 2015)", "note": "Hit rate of the full screen: of about 310,000 compounds, about 2,200 (0.71%) showed an effect of 50% or more. Effects have a minus sign here. The list shows a part of the results."}
{"target": "human ether-à-go-go-related gene (hERG) potassium channel (human, UniProt Q12809)", "sequence (Q12809 whole entry, looked up)": "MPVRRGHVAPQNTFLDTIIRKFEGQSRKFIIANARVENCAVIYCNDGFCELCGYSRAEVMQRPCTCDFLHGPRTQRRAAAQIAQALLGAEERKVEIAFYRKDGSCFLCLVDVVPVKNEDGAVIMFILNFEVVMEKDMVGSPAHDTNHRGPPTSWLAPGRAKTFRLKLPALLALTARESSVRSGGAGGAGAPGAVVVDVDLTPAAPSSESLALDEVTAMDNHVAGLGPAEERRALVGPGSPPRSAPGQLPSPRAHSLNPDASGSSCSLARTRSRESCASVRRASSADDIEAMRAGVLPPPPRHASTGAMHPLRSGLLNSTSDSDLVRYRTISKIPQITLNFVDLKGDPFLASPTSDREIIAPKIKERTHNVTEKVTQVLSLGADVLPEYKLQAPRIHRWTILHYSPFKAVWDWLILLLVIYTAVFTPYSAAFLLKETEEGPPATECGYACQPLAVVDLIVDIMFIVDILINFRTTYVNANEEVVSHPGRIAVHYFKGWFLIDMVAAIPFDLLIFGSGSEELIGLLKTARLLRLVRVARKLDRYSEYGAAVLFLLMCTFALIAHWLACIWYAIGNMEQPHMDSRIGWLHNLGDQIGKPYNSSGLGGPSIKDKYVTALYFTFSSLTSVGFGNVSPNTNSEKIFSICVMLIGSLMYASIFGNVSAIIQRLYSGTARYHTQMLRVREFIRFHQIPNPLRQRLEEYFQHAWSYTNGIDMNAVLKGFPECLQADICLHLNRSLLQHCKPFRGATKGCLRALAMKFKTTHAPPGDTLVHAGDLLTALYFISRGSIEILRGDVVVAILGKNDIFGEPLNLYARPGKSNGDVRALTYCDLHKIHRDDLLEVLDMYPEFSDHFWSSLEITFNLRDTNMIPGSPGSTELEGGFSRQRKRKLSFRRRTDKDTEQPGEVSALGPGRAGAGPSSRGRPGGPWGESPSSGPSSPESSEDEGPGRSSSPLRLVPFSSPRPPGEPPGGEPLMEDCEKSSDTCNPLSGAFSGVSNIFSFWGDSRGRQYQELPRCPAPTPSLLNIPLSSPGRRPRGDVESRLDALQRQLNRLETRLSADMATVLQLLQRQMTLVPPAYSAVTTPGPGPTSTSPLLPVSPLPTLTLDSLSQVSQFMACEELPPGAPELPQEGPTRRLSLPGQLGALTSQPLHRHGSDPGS", "assay": "primary screen, population patch clamp on CHO cells stably expressing hERG", "units": {"hERG current change (%, negative = inhibition) at 1uM": "%"}}
{"smiles": "O=C(CCCN1C(=O)/C(=C/c2cccc(Br)c2)SC1=S)N1CCOCC1", "hERG current change (%, negative = inhibition) at 1uM": 14.5}
{"smiles": "O=S1(=O)N=C(c2ccccc2)c2ccccc21", "hERG current change (%, negative = inhibition) at 1uM": 10.2}
{"smiles": "CC1(C)CC(=O)C2=C(C1)N(CCN1CCOCC1)C1=C(C(=O)CC(C)(C)C1)C2c1cccc(F)c1", "hERG current change (%, negative = inhibition) at 1uM": -7.98}
{"smiles": "CC(C)(C)C(=O)Nc1ccc(C(=O)NNC(=O)c2ccccc2)cc1", "hERG current change (%, negative = inhibition) at 1uM": 6.81}
{"smiles": "Cc1cccc(C(=O)OCC(=O)Nc2sc3c(c2C#N)CCC3)c1", "hERG current change (%, negative = inhibition) at 1uM": 12.3}
{"smiles": "COc1nc(-c2ccccc2)nc(C)c1CC(=O)O", "hERG current change (%, negative = inhibition) at 1uM": 8.43}
{"smiles": "Cc1c(NS(=O)(=O)c2ccc3c(c2)Cc2ccccc2-3)c(=O)n(-c2ccccc2)n1C", "hERG current change (%, negative = inhibition) at 1uM": 8.38}
{"smiles": "CC12CCC(C(=O)NCc3ccc4c(c3)OCO4)(C(=O)C1=O)C2(C)C", "note": "(stereo not shown)", "hERG current change (%, negative = inhibition) at 1uM": 3.57}
{"smiles": "O=C(Cn1nnc2ccccc21)c1ccc(Cl)cc1", "hERG current change (%, negative = inhibition) at 1uM": 9}
{"smiles": "Cc1csc(NC(=O)c2cc(C)oc2C)n1", "hERG current change (%, negative = inhibition) at 1uM": 4.97}
{"smiles": "O=C(Nc1sc2c(c1C(=O)O)CCCCC2)c1ccco1", "hERG current change (%, negative = inhibition) at 1uM": -5.14}
{"smiles": "Cc1ccnc(SCc2cc(=O)c(OC(=O)c3cc([N+](=O)[O-])ccc3Cl)co2)n1", "hERG current change (%, negative = inhibition) at 1uM": 11}
{"smiles": "O=S(=O)(c1ccc(Cl)c(NC(=S)Nc2cccc(O)c2)c1)N1CCOCC1", "hERG current change (%, negative = inhibition) at 1uM": 9.86}
{"smiles": "CCO/C=N/c1c(C#N)c(CC#N)nn1-c1ccccc1", "hERG current change (%, negative = inhibition) at 1uM": -0.468}
{"smiles": "Cc1cc2c(cc1S(=O)(=O)N1CCN(c3ccccc3F)CC1)OCC(=O)N2", "hERG current change (%, negative = inhibition) at 1uM": 16.4}
{"smiles": "O=c1cc(CNc2ccc(Br)cc2)nc2sccn12", "hERG current change (%, negative = inhibition) at 1uM": 4.46}
{"smiles": "COc1ccc(CNC(=O)CN=C2NC(=O)C(c3ccccc3)(c3ccccc3)N2)cc1", "hERG current change (%, negative = inhibition) at 1uM": 7.17}
{"smiles": "Cc1nn(C)c(C(=O)NNC(=S)Nc2ccc(F)cc2)c1[N+](=O)[O-]", "hERG current change (%, negative = inhibition) at 1uM": -1.23}
{"smiles": "O=C(O)c1cccc(C(=O)Cc2ccccc2)c1", "hERG current change (%, negative = inhibition) at 1uM": 11.9}
{"smiles": "CCc1cccc(CC)c1N(COC)C(=O)Cn1ccccc1=N.Cl", "hERG current change (%, negative = inhibition) at 1uM": 11.4}
{"smiles": "O=C(CSc1nnc(CNC(=O)c2cccs2)o1)Nc1ccc(Br)cc1", "hERG current change (%, negative = inhibition) at 1uM": 7.23}
{"smiles": "COc1ccccc1N1CCN(C(=O)CSc2nc3ncnc(N)c3[nH]2)CC1", "hERG current change (%, negative = inhibition) at 1uM": 18.6}
{"smiles": "COc1cccc(C(=O)O/N=C(\\N)c2ccncc2)c1", "hERG current change (%, negative = inhibition) at 1uM": 6.82}
{"smiles": "Cc1csc(NC(=O)CSc2ncn(-c3ccccc3)n2)n1", "hERG current change (%, negative = inhibition) at 1uM": 10.8}
{"smiles": "Cc1[nH]c2ccccc2c1Cc1nnc(SCC(=O)NCc2ccco2)o1", "hERG current change (%, negative = inhibition) at 1uM": 8.95}
{"smiles": "O=C(Nc1cccc(F)c1)c1ccc(S(=O)(=O)N2CCOCC2)cc1", "hERG current change (%, negative = inhibition) at 1uM": 11.2}
{"smiles": "Cc1onc(-c2ccccc2)c1C(=O)n1cc(Br)cn1", "hERG current change (%, negative = inhibition) at 1uM": -6.43}
{"smiles": "COc1cc(C(=S)N2CCC(C)CC2)ccc1O", "hERG current change (%, negative = inhibition) at 1uM": 13.7}
{"smiles": "O=C(NCc1ccccc1)C1(C(F)(F)F)CC(CCCO)CCCO1", "note": "(stereo not shown)", "hERG current change (%, negative = inhibition) at 1uM": 4.32}
{"smiles": "CC(=O)Nc1ccc(-c2csc(NNC(=O)c3ccc(C)cc3)n2)cc1", "hERG current change (%, negative = inhibition) at 1uM": 8.91}
{"smiles": "COc1ccc(OC)c(NC(=O)CSc2nnc(Cn3nnc4ccccc43)n2C)c1", "hERG current change (%, negative = inhibition) at 1uM": 0.886}
{"smiles": "Cl.O=C(NC1CCCCC1)N1CCNCC1", "hERG current change (%, negative = inhibition) at 1uM": 14.6}
{"smiles": "COc1ccc(C(=O)Nc2nnc(C3=COCCO3)o2)cc1OC", "hERG current change (%, negative = inhibition) at 1uM": 18.9}
{"smiles": "CNC(C)(C)Cc1ccccc1.O=S(=O)(O)O", "hERG current change (%, negative = inhibition) at 1uM": 13.1}
{"smiles": "CCCNc1nc2ccccc2n2c(C)nnc12", "hERG current change (%, negative = inhibition) at 1uM": 7.57}
{"smiles": "Cc1ccc(C(C)C)c(OCCCN2CCc3ccccc3C2)c1.Cl", "hERG current change (%, negative = inhibition) at 1uM": -14.9}
{"smiles": "COC(=O)C1=C(c2ccc(Cl)c(C(F)(F)F)c2)C[C@@H]2CC[C@H]1N2C(=O)NCCOc1ccccc1Cl", "hERG current change (%, negative = inhibition) at 1uM": 10.8}
{"smiles": "CC(=O)c1c(C)[nH]c(C(=O)CSc2nc3ccccc3n2C)c1C", "hERG current change (%, negative = inhibition) at 1uM": 8.19}
{"smiles": "O=C(O)CC12CC3CC(C1)CC(n1cncn1)(C3)C2", "hERG current change (%, negative = inhibition) at 1uM": 12.8}
{"smiles": "COc1ccc(C(=O)NCCc2c[nH]c3ccccc23)cc1OC", "hERG current change (%, negative = inhibition) at 1uM": 3.3}
{"smiles": "COC(=O)c1ccc(COc2cccc3c2CCN(Cc2ccccc2)C3=O)o1", "hERG current change (%, negative = inhibition) at 1uM": 2.36}
{"smiles": "O=S(=O)(Nc1ccc(O)c2ccccc12)c1cccs1", "hERG current change (%, negative = inhibition) at 1uM": 4.77}
{"smiles": "CCOC(=O)C1CCCCC12C(C#N)=C(N)Oc1n[nH]c(C)c12", "note": "(stereo not shown)", "hERG current change (%, negative = inhibition) at 1uM": 12.5}
{"smiles": "CC(=O)Nc1ccc(NC(=O)C(C)OC(=O)c2oc3ccccc3c2C)cc1", "note": "(stereo not shown)", "hERG current change (%, negative = inhibition) at 1uM": -48.6}
{"smiles": "CC(C)CC(=O)Nc1nnc(S(=O)(=O)N2c3ccccc3CC2C)s1", "note": "(stereo not shown)", "hERG current change (%, negative = inhibition) at 1uM": 8.89}
{"smiles": "CCCCn1c(N)c(N(CCC(C)C)C(=O)c2ccc(C)o2)c(=O)[nH]c1=O", "hERG current change (%, negative = inhibition) at 1uM": 11}
{"smiles": "Cc1ccc(-c2nnn(CC(=O)N(c3cccc(F)c3)C(C(=O)NC(C)(C)C)c3ccco3)n2)o1", "note": "(stereo not shown)", "hERG current change (%, negative = inhibition) at 1uM": 22.2}
{"smiles": "COCCN(C(=O)CSc1ncccn1)c1c(N)n(Cc2ccccc2)c(=O)[nH]c1=O", "hERG current change (%, negative = inhibition) at 1uM": 10.6}
{"smiles": "COc1ccc(NS(=O)(=O)c2cc(NC(=O)COc3ccccc3F)ccc2OC)cc1", "hERG current change (%, negative = inhibition) at 1uM": 2.9}
{"smiles": "CN(Cc1ccccc1)C(=O)COc1cccnc1[N+](=O)[O-]", "hERG current change (%, negative = inhibition) at 1uM": 14.1}
{"smiles": "O=C(Nc1nccs1)c1c(O)c2c([nH]c1=O)CCCC2", "hERG current change (%, negative = inhibition) at 1uM": 10.1}
{"smiles": "Cc1onc(-c2ccccc2)c1C(=O)NCCc1c[nH]c2ccccc12", "hERG current change (%, negative = inhibition) at 1uM": -1.95}
{"smiles": "CCc1cc(=O)oc2cc(OCC(=O)N3CCCc4ccccc43)ccc12", "hERG current change (%, negative = inhibition) at 1uM": 6.51}
{"smiles": "CC(C)(C)C(=O)COC(=O)c1cccc(NC(=O)c2ccco2)c1", "hERG current change (%, negative = inhibition) at 1uM": 16.4}
{"smiles": "NNC(=O)c1nc(-c2ccccc2)cc(-c2ccccc2)n1", "hERG current change (%, negative = inhibition) at 1uM": 3.55}
{"smiles": "O=C(Nc1nc2c(s1)CCCC2)C1CCCN1C(=O)c1cccs1", "note": "(stereo not shown)", "hERG current change (%, negative = inhibition) at 1uM": -3.29}
{"smiles": "Cc1ccccc1OCC(O)Cn1c(=N)n(CCN2CCOCC2)c2ccccc21.Cl", "note": "(stereo not shown)", "hERG current change (%, negative = inhibition) at 1uM": -25.3}
{"smiles": "COc1ccc(CCC(=O)OCC(=O)c2ccc(C)cc2)cc1", "hERG current change (%, negative = inhibition) at 1uM": 6.18}
